# Out of some 370,000 compounds screened, about 150 (0.041%) were called active. This list was built around the results that the source calls inconclusive (neither active nor inactive); the mix of calls is not that of the screen. The call rests on the fitted dose curve; in most records, active means well fitted inhibition curve with a large enough effect; inconclusive means small, poorly fitted or top-dose-only effect; inactive means flat fitted curve, though single readings scatter. No potency is given beside an inconclusive call; the fits are too rough.
# Target: Beta-lactamase (Escherichia coli (strain K12)) (UniProt P00811)
# Chain of UniProt P00811 (P00811 whole entry, looked up): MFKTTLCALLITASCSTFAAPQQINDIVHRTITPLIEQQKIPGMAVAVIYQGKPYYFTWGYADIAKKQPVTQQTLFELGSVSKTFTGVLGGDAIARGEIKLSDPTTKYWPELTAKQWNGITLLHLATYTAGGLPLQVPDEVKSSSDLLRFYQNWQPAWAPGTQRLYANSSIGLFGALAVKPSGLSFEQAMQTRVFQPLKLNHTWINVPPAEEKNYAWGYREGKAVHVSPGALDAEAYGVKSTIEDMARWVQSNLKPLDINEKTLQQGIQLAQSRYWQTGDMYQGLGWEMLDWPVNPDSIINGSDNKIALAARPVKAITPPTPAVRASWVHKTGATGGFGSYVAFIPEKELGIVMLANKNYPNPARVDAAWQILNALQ
# Assay: qHTS Inhibitors of AmpC Beta-Lactamase (assay with detergent); further: nearly all actives have a fitted effect of over 25% in size;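 on activity change, negative = inhibition: 0% = no-compound wells and -100% = no-enzyme wells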
# Conditions: AmpC hydrolysis of nitrocefin, absorbance 480 nm, 0.01% Triton; activity change, negative = inhibition: at 114 µM (top of the series)
# Procedure, shortened: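 20 mM phosphate pH 7.0 + 0.01% (detergent screen) or 0.0001% Triton X-100; 5.3 nM AmpC reagent; cpd preinc 15 min RT; nitrocefin (800 uM stock) to start; A480 q20 s × 4 min; Activity was normalised to no-enzyme and no-compound control wells.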
# Potency means the concentration at half of the fitted maximal effect; tags describe the fitted curve by direction and shape.
SMILES,Potency,"activity change, negative = inhibition"
CC1=C(C(=O)OC(C)C)[C@]2(C(=O)N(CC(N)=O)c3ccccc32)C(C#N)=C(N)O1,"inconclusive [inhibitor, partial curve]",
COCCn1c(=O)[nH]c2cc(C(=O)N3CCN(c4ccc(F)cc4)CC3)ccc2c1=O,"inconclusive [inhibitor, single point]",
CCN1CCN(c2cc(=O)n(C3CCCCC3)c(=O)[nH]2)CC1,"inconclusive [inhibitor, full curve, poor fit]",
COC(=O)c1ccccc1NC(=O)C1CCCN(C(=O)c2cnn(-c3ccc(F)cc3)c2-n2cccc2)C1 (configuration not stated),"inconclusive [inhibitor, single point]",
COC(=O)C1=CN(Cc2ccccc2)C=C(C(=O)OC)C1c1cc(F)ccc1F,"inconclusive [inhibitor, full curve, poor fit]",
CCCCc1n[nH]c2c1/C(=N/O)CC(C)(C)C2,"inconclusive [inhibitor, single point]",
COc1ccc(NC(=O)CC(=O)Nc2ccc(OC)cc2OC)c(OC)c1,,inactive: -17.3%
CC(C)NC(=O)c1ccccc1NC(=O)CCS(=O)(=O)Cc1ccccc1,"inconclusive [inhibitor, full curve, poor fit]",
COc1ccc(C2/C=C\CN(S(=O)(=O)c3ccc(C)cc3)[C@H](Cc3ccccc3)C(=O)N2Cc2ccc(F)cc2)cc1 (some centres not stated),,inactive: 0.663%
Cc1ccc(S(=O)(=O)N(C)CC(=O)Nc2cc(C)ccn2)cc1,"inconclusive [inhibitor, full curve, poor fit]",
CC(C)CN1C(=O)/C(=C/c2ccco2)NC1=S,"inconclusive [inhibitor, full curve, poor fit]",
O=C(Nc1ccc(F)c(Cl)c1)C1CCN(c2ncccn2)CC1,,inactive: 15.4%
O=C1C(=O)N(c2ccccn2)C(c2cccc(F)c2)/C1=C(/O)c1ccccc1 (configuration not stated),"inconclusive [inhibitor, partial curve, poor fit]",
CN(C)c1ccc2c(O)cc(=O)n(C)c2c1,,inactive: -3.29%
O=C(/C=C/c1ccc(O)c(O)c1)OC(Cc1ccc(O)c(O)c1)C(=O)O (configuration not stated),"inconclusive [inhibitor, single point]",
Oc1c(C(c2cccc(Cl)c2)N2CCOCC2)sc2nc(-c3ccco3)nn12 (configuration not stated),,inactive: 2.41%
CCCn1cc(S(=O)(=O)CC(=O)Nc2ccc(OC)cc2OC)c2ccccc21,"inconclusive [inhibitor, full curve, poor fit]",
Cc1ccc(C(=O)Nc2cccc(C(=O)NCc3ccccc3)c2)cc1,"inconclusive [inhibitor, partial curve, poor fit]",
COC(=O)C1(C)NC(c2ccccc2C)C2C(=O)N(c3ccc(F)cc3)C(=O)C21 (configuration not stated),"inconclusive [inhibitor, full curve]",
Cc1ccc(N(CC(=O)NCc2ccco2)C(=O)CCC(=O)Nc2ccccn2)c(C)c1,,inactive: -13.6%
COc1ccc(Cl)cc1NC(=O)c1oc2ccc(S(=O)(=O)N3CCCCC3)cc2c1C,,inactive: 2.37%
COc1ccc(NC(=O)c2ccc(Cl)c(NC(=O)c3ccncc3)c2)cc1,,inactive: 2.73%
COc1ccccc1NC(=O)CSc1nnc(CC(=O)Nc2cccc(C(F)(F)F)c2)n1C,"inconclusive [inhibitor, full curve, poor fit]",

SMILES,Potency,"activity change, negative = inhibition"
COc1ccc(OC)c(NC(=O)C2CCCN2C(=O)C2CCC(C)CC2)c1 (configuration not stated),,inactive: 3.04%
Cc1ccc2nc(NC(=O)CSc3nnc(C)c(=O)n3N)sc2c1,,inactive: -1.92%
COC(=O)c1ccc(NC(=O)CNC(=O)C2CCCCC2)cc1,"inconclusive [inhibitor, full curve, poor fit]",
COc1ccc(N2CCN(CC(O)COCCOc3ccc(Br)cc3)CC2)cc1 (configuration not stated),,inactive: -7.21%
CCN(c1ccccc1)S(=O)(=O)c1cc(OC)ccc1OC,"inconclusive [inhibitor, full curve, poor fit]",
COC(=O)CC1Oc2ccc(Cl)cc2-n2cc(-c3ccc(C)cc3)nc21 (configuration not stated),,inactive: -4.48%
O=C(c1ccco1)N1CCN(C(=O)c2cc3c(s2)-c2ccccc2OC3)CC1,"inconclusive [inhibitor, partial curve, poor fit]",
CN(/C(=N/S(=O)(=O)c1cccs1)c1ccccc1)c1ccc(O)cc1,"inconclusive [inhibitor, full curve, poor fit]",
O=c1[nH]n2c(=O)c3c([nH]c2c1N=Nc1ccccc1)CCC3,"inconclusive [inhibitor, partial curve]",
O=C1CCC(=O)N1CNc1ccccn1,"inconclusive [inhibitor, full curve, poor fit]",
Cc1ccc(CCNS(=O)(=O)c2cc3c(cc2C)NC(=O)CO3)cc1,"inconclusive [inhibitor, single point]",
O=C(c1ccc(CSc2ccc(Cl)cc2)cc1)N1CCCC1,"inconclusive [inhibitor, single point]",
Cc1nn(C)cc1C(N)=O,"inconclusive [inhibitor, full curve, poor fit]",
COc1ccc(/C=C2/SC(=O)N(CCC(=O)Nc3ccccc3C(=O)O)C2=S)cc1,"inconclusive [inhibitor, partial curve]",
Cc1cc(C)cc(NC(=O)Cn2c(C)cc(C)c(C#N)c2=O)c1,,inactive: 5.72%
Cc1ccc(C(=O)N2CC=C(c3ccccc3)CC2)o1,,inactive: -9.16%
O=C(CN1CCN(c2ccccn2)CC1)NC1CCCC1,"inconclusive [inhibitor, partial curve, poor fit]",
CC(C)NC(=O)CN1C(=O)NC(CCc2ccccc2)C1=O (configuration not stated),"inconclusive [inhibitor, single point]",
Cc1ccc(C(=O)N/N=C/c2c[nH]c3ccccc23)o1,"inconclusive [inhibitor, full curve, poor fit]",
O=C(Cc1ccccc1)c1c[nH]c(C(=O)NCc2ccncc2)c1,"inconclusive [inhibitor, single point]",
O=C(NCc1ccccc1)C1=C[C@@H](c2coc3ccccc3c2=O)C[C@@H](OCc2ccc(CO)cc2)O1,,inactive: 2.47%
CCn1c(SCC(=O)Nc2ccccc2)nnc1-c1cccs1,"inconclusive [inhibitor, partial curve]",
CCSc1nc2c(sc3ccccc32)c(=O)n1C(C)C,,inactive: -2%

SMILES,Potency,"activity change, negative = inhibition"
CC(=O)c1cc2c(cc1NC(=O)c1ccco1)OCCO2,,inactive: 3.94%
COC(=O)CSc1c(-c2ccccc2)c2cc(Cl)ccc2[nH]c1=O,"inconclusive [inhibitor, full curve, poor fit]",
CCC(C)NC(=O)CN(c1cc(Cl)cc(Cl)c1)S(C)(=O)=O (configuration not stated),,inactive: -1.43%
Cc1cc(C)cc(OCC(=O)OCC(=O)N2CC(=O)Nc3ccccc32)c1,"inconclusive [inhibitor, full curve, poor fit]",
COc1cc(/C=N/NC(=O)C2COc3ccccc3O2)ccc1O (configuration not stated),,inactive: 7.43%
CCN(CC)S(=O)(=O)c1cccc(C(=O)NNC(=O)C2=NN(c3ccccc3)C(=O)CC2)c1,"inconclusive [inhibitor, full curve, poor fit]",
Cc1ccc(S(=O)(=O)N(C)C)cc1NC(=O)COC(=O)c1c(C)noc1C,"inconclusive [inhibitor, full curve]",
C/C(=N\N1CCCCCC1)c1c(O)n(-c2ccccc2)c(=O)[nH]c1=O,"inconclusive [inhibitor, partial curve]",
O=C(Nc1c[nH]c(=O)[nH]c1=O)c1cccc([N+](=O)[O-])c1,"inconclusive [inhibitor, single point]",
Cc1ccccc1CN(C)C(=O)COC(=O)CSc1ccc([N+](=O)[O-])cc1,"inconclusive [inhibitor, full curve, poor fit]",
COCCn1nnnc1CN(Cc1cc2cc(OC)c(OC)cc2[nH]c1=O)C1CCCC1,"inconclusive [inhibitor, partial curve, poor fit]",
CCN1CCN(c2ccc(S(=O)(=O)N(CC)CC)cc2[N+](=O)[O-])CC1,"inconclusive [inhibitor, partial curve]",
COc1cc(/C=C/[N+](=O)[O-])ccc1OC(=O)c1cc2ccccc2oc1=O,"inconclusive [inhibitor, partial curve, poor fit]",
Nc1nc(SCC(=O)Nc2cc(S(=O)(=O)N3CCOCC3)ccc2Cl)n[nH]1,"inconclusive [inhibitor, partial curve, poor fit]",
Cc1cc2nc(C)n(CCCNC(=O)Nc3ccccc3)c2cc1C,"inconclusive [inhibitor, single point]",
O=C(NCCCN1CCN(c2ccccc2)CC1)C1CCCN(c2ncnc3c2nc2n3CCCCC2)C1 (configuration not stated),"inconclusive [inhibitor, full curve, poor fit]",
CCS(=O)(=O)c1c(S(=O)(=O)CC)c2cc(C(C)(C)C)ccn2c1C(=O)c1ccc(F)cc1,,inactive: 9.22%
COc1ccc(S(=O)(=O)Nc2nnc(CC(C)(C)C)s2)cc1,,inactive: 3.01%
O=C1CCCC(=O)C1Sc1ccc(Cl)cc1,"inconclusive [inhibitor, single point]",
O=C(C1CCC(=O)N1C1CCCCC1)N1CCN(c2ccc(F)cc2)CC1 (configuration not stated),"inconclusive [inhibitor, single point]",
CCOC(=S)SCc1cn2ccccc2n1,"inconclusive [inhibitor, single point]",

# Reference: PubChem BioAssay AID485294 (National Center for Advancing Translational Sciences (NCATS), 2010)
